Screen size: about 48,000 compounds; about 1,200 (2.5%) were called active. Inconclusive results (about 2%) are left out.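 How the source made its calls: active means activation of at least 60% and not above a set upper limit (about 1 call in 100 departs from these limits); inconclusive means activation of 40% to 60%, or above that upper limit; inactive means activation under 40%.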 The list shows a part of the results. *1 amine or outer side, *2 acyl side, *3 side chain or, on linkers, in order; H or OH if unused. Where a SMILES comes first, the peptide text is derived from it. Bridges are numbered along the chain shown (N, C = ends). [ ]: non-standard residue; d: D form. The star is where a group is joined. ξ: configuration not given here. ΔAla(3-NHCONH2) = NC(=O)NC=C(N)C(=O)O; X1 = NC1=NCCC(C(N[*:1])C(=O)[*:2])N1; ξβ3hOrn = NCCCC(N)CC(=O)*; Dap = NC[CH](N)C(=O)O
The compounds below were run against Probable G-protein coupled receptor 32 (Homo sapiens) (UniProt O75388) (assay: qHTS for Agonists of Human Resolvin D1 Receptor DRV1). Conditions: CHO-K1 GPR32 beta-arrestin PathHunter luminescence, 90 min; at 76.9 µM; stronger effect = higher value; zero percent set by DMSO-only wells.
UniProt O75388, sequence (O75388 whole entry, looked up): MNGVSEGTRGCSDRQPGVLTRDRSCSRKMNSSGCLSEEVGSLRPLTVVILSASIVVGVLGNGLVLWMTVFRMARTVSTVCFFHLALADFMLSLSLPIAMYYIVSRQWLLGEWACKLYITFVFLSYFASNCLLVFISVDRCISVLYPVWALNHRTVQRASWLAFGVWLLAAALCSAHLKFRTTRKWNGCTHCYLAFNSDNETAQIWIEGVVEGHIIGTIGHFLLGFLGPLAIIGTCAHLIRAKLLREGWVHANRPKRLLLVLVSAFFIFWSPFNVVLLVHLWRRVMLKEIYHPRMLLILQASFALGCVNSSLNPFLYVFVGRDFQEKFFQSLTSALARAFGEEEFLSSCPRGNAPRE
Summary of the method: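 Luminescent readout of beta-Gal complementation quantifies ligand-induced beta-arrestin association with GPR32 in CHO-K1 cells; 90 min compound incubation at 37 °C, detection 1 h at room temperature.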
For COCCN1CCc2nc(SCC(=O)Nc3ccc(C)c(Cl)c3)[nH]c(=O)c2C1, the activation was inactive: 15.6%.
In the case of COc1ccc(Nc2nc3ccc(C)cc3nc2-n2nc(C)cc2C)cc1Cl, the activation is reported as inactive: -15.5%.
In the case of COc1ccccc1N1CCN(C(=O)Cn2ncc3c2-c2cc(C)ccc2OC3)CC1, the activation is reported as inactive: -12.7%.
In the case of CCOc1ccccc1CNC(=O)Cn1c(=O)c2cccn2c2ccc(F)cc21, the activation is reported as inactive: -12%.
In the case of COc1ccccc1NC(=O)CC1Sc2ccc(C(F)(F)F)cc2NC1=O (centres undefined), the activation is reported as active: 64.4%.
CCOC(=O)c1noc2ncn(CC(=O)Nc3ccc(F)cc3Cl)c(=O)c12 was tested, and the activation was inactive: 11.2%.
For COc1ccc(-c2onc(C)c2C)cc1S(=O)(=O)NCc1cccs1, the activation was inactive: -12.1%.
With CC1=C(C(=O)OCc2ccc(C)cc2)C(c2ccccc2C(F)(F)F)CC(=O)N1 (centres undefined) the activation was inactive: 10.7%.
In the case of CC1CCCCN1Cc1c(O)ccc2c(=O)c(-c3ccc(Cl)cc3)c(C(F)(F)F)oc12 (centres undefined), the activation is reported as inactive: -17.5%.
CCOc1ccc(C(=O)Nc2ccc3c(c2)CCCN3S(=O)(=O)c2ccc(C)cc2)cc1 was tested, and the activation was inactive: -2.36%.
COC(=O)c1c(NC(=O)c2ccc(Cl)c(Cl)c2)sc2c1CCCC2 was tested, and the activation was inactive: 6.34%.
CCOC(=O)c1sc2ncn(CC(=O)Nc3ccc(F)cc3F)c(=O)c2c1C was tested, and the activation was inactive: 11.7%.
C#C[C@]1(O)CC[C@H]2[C@@H]3CCC4=CC(=O)CC[C@@H]4[C@H]3CC[C@@]21C was tested, and the activation was active: 69.3%.
For CCOc1ccc(NC(=O)CSc2nnc3scc(-c4ccccc4)n23)cc1, the activation was inactive: 30.8%.
For CCCCCCCCCCCCCCCCCCOC[C@H](COP(=O)([O-])OCC[N+](C)(C)C)OC, the activation was inactive: 8.26%.
Cc1ccc(-c2nc3ccccn3c2Nc2ccccc2C)s1 was tested, and the activation was inactive: 1.63%.
COC(=O)C1=C(C)NC(C)=C(C(=O)OC)C1c1ccccc1[N+](=O)[O-] was tested, and the activation was inactive: -6.08%.
Cc1c(C(=O)N2CCCCCC2)c(S(=O)(=O)NCc2ccc(Br)cc2)c(C)n1C was tested, and the activation was inactive: -14%.
For COc1ccc(Nc2cc(C(=O)NC3CCC(C)CC3)c3ccccc3n2)cc1OC (centres undefined), the activation was inactive: 5.36%.
COC(=O)c1ccc(NC(=O)NCCn2nnc3cc(S(=O)(=O)N(C)C)ccc32)cc1 was tested, and the activation was inactive: 30.1%.
With CCOc1ccc(CNC(=O)c2ccc3nc(C(C)C)oc3c2)cc1 the activation was inactive: -22.3%.
CCOc1ccc(C2Nc3c(C)cccc3-c3cc(C)nn32)cc1 (centres undefined) was tested, and the activation was inactive: -7.91%.
For CCOc1ccccc1C(=O)Nc1c(C(=O)Nc2ccc(F)cc2)oc2ccccc12, the activation was inactive: -8.74%.
In the case of Cn1c(=O)c(=O)n(C)c2cc(S(=O)(=O)CCC(=O)Nc3ccc(F)cc3)ccc21, the activation is reported as inactive: -19.5%.
With COc1ccc(S(=O)(=O)NCC(c2ccco2)S(=O)(=O)c2cccs2)cc1C (centres undefined) the activation was inactive: -2.4%.
In the case of Cc1oc2ncnc(N3CCOCC3)c2c1C(=O)N(Cc1ccccc1)C(C)C, the activation is reported as inactive: -13.4%.
With Cc1ccc(C2=NN(CC(=O)NCCC(C)C)C(=O)CC2)cc1 the activation was inactive: -24.8%.
For CCOC(=O)c1cc(OC(=O)c2ccc(C)cc2)n(-c2ccccc2)n1, the activation was inactive: 5.02%.
COc1cccc(-c2nnc(-c3ccccc3NC(=O)c3cccc(C(F)(F)F)c3)o2)c1 was tested, and the activation was inactive: 9.18%.
With CCOc1ccc(NC(=O)c2cnn3c2NC(c2cccc(OC)c2)=CC3c2ccccc2)cc1 (centres undefined) the activation was inactive: -24.9%.
O=c1c(S(=O)(=O)c2ccccc2)cn(Cc2cccc(F)c2)c2cc(N3CCOCC3)c(F)cc12 was tested, and the activation was inactive: -10.5%.
With COc1ccc(OC(=O)c2nc(SCc3ccc(F)cc3)ncc2Cl)cc1 the activation was inactive: -19.7%.
With Cn1c(=O)n(C)c2cc(N3CCOCC3)c(NC(=O)c3ccccc3Br)cc21 the activation was inactive: -21.3%.
With CCOC(=O)c1ccc(NC(=O)c2c(NCc3cccs3)sc3c2CCCC3)cc1 the activation was inactive: -14.1%.
For CCc1ccc(S(=O)(=O)c2cn(C)c3cc(N4CCC(C)CC4)c(F)cc3c2=O)cc1, the activation was inactive: -4.31%.
COc1ccc(NC(=O)c2ccco2)cc1NC(=O)COc1ccccc1 was tested, and the activation was inactive: -4.23%.
In the case of Cc1ccc(C(=O)Nc2nnc(S(=O)(=O)N3c4ccccc4CC3C)s2)cc1 (centres undefined), the activation is reported as inactive: 30.4%.
COc1cccc(CNC(=O)c2cc(S(=O)(=O)N3CCCCC3)cn2C)c1 was tested, and the activation was inactive: 11.6%.
For COc1ccc(CNC(=O)CN2C(=O)CSc3ccc(S(=O)(=O)N4CCOCC4)cc32)c(OC)c1, the activation was inactive: -19.1%.
CC(=O)Nc1ccc(NC(=O)CSc2nc3ccccc3nc2N2CCC(C)CC2)cc1 was tested, and the activation was inactive: 19.5%.
In the case of Cc1c(Cl)cccc1NC(=O)CN(CCc1ccccc1)S(=O)(=O)c1ccccc1, the activation is reported as inactive: 19.4%.
With CCOc1ccc(CNCc2c(C(=O)O)n(Cc3ccc(C)cc3)c3cc(C)ccc23)cc1 the activation was active: 64.3%.
Cc1cccc(C(=O)N2CCc3cc(CNS(=O)(=O)c4ccc(Cl)s4)ccc32)c1 was tested, and the activation was inactive: 3.57%.
For Cc1ccccc1OCC(=O)Nc1ccc(-c2nc3ncccc3o2)cc1, the activation was inactive: -8.4%.
With CCCCN(CC)CCNC(=O)c1cc2c(=O)[nH]c3ccccc3c2n1C the activation was inactive: 10.4%.
With Cc1ccccc1Nc1ncnc2c1cnn2C the activation was inactive: 8.88%.
For O=C(NCc1ccccc1)c1ccc(CSc2nc3cccnc3n2Cc2cccc(F)c2)cc1, the activation was inactive: -18.2%.
For CCCCn1nc(NC(=O)c2cccc(Cl)c2)c2cc3ccccc3nc21, the activation was inactive: -7.15%.
In the case of Cc1ccccc1NS(=O)(=O)c1ccc2[nH]cc(C(=O)N3CCCCC3)c(=O)c2c1, the activation is reported as inactive: -2.18%.
With COc1ccc(C)cc1-n1nnc(-c2nc(-c3ccccc3Cl)no2)c1N the activation was inactive: -12.3%.
In the case of CCCCn1c(NCc2ccc(OC)cc2O)nc2ccccc21, the activation is reported as active: 70.1%.
O=C(NCc1ccc(F)cc1)c1ccc2c(O)c(S(=O)(=O)c3ccccc3)c(=O)[nH]c2c1 was tested, and the activation was inactive: -18.5%.
Cc1ccccc1CN1C(=O)c2ccccc2Sc2ccc(C(=O)N3CCCC3)cc21 was tested, and the activation was inactive: -25%.
In the case of CCCc1nc2ccccc2n2c(-c3ccccc3)c3c(=O)n(C)c(=O)n(C)c3c12, the activation is reported as inactive: -25.5%.
CC(C)c1ccc(C(=O)Nc2cc(-c3ccccc3F)nn2-c2ccccc2)cc1 was tested, and the activation was inactive: -1.08%.
CCN(C(=O)c1coc(=O)c2ccccc12)c1ccccc1C was tested, and the activation was inactive: -0.831%.
In the case of Cc1ccc(-c2nnn3c2nc(NCCc2ccc(Cl)cc2)c2ccccc23)cc1, the activation is reported as inactive: 37.8%.
For CCCOc1ccc(CNC(=O)Cn2ncn3c(cc4sc(CC)cc43)c2=O)cc1, the activation was inactive: -4.98%.
For CCC1CCCCN1CC(=O)Nc1cc(C)c2c(=O)oc3ccccc3c2n1 (centres undefined), the activation was inactive: -6.14%.
With O=C(CSc1nc2c([nH]c3ccccc32)c(=O)n1-c1ccc(Cl)cc1)N1CCOCC1 the activation was inactive: 2.2%.
For Cc1cc(C)cc(NC(=O)C2CCCN(C(=O)c3cnn(-c4ccccc4)c3-n3cccc3)C2)c1 (centres undefined), the activation was inactive: 10.5%.
Cc1cccc(NC(=O)CSc2c(C)cnc3c2c(=O)n(C)c(=O)n3C)c1C was tested, and the activation was inactive: 16.1%.
For O=S(=O)(NCC(c1ccco1)N1CCOCC1)c1cc(F)ccc1F (centres undefined), the activation was inactive: -3.12%.
With Cc1ccc(NC(=O)N2CCC(c3ccccc3)C2)cc1C (centres undefined) the activation was inactive: -6.34%.
For Cc1ccc(-c2nonc2NC(=O)c2ccc(F)cc2)cc1C, the activation was inactive: 16.7%.
With COc1cc(C(=O)NCC(c2ccco2)S(=O)(=O)c2ccccc2)cc(OC)c1OC (centres undefined) the activation was inactive: -5.64%.
For O=C(CCc1ccccc1)N(Cc1cccnc1)c1nc2c(F)cccc2s1, the activation was inactive: -28.1%.
With CCc1nn(C(CC)C(=O)NCc2ccc(F)cc2)c(=O)c2cc3occc3n12 (centres undefined) the activation was inactive: -5.72%.
For O=C(c1cc2c(s1)-c1ccccc1OC2)N1CCN(c2ccccc2)CC1, the activation was inactive: -29.9%.
With CC1=C(C(=O)Nc2ccccc2)C(CC(C)C)n2nc(SCc3ccccc3C)nc2N1 (centres undefined) the activation was inactive: 2.4%.
For CCCOc1ccc(C(=O)N(Cc2ccc(N(C)C)cc2)CC2CCCO2)cc1 (centres undefined), the activation was inactive: -26%.
For NCCCC(N)CC(=O)NCC1NC(=O)C(CO)NC(=O)C(N)CNC(=O)C(C2CCN=C(N)N2)NC(=O)C(=CNC(N)=O)NC1=O (stereo not drawn) (H-[Dap]S[Dap](ξβ3hOrn)[ΔAla(3-NHCONH2)][X1]; lactam 1-C; configuration not given here), the activation was inactive: 7.39%.
With Cc1ccc(C(=O)Nc2ccc(OCc3cc(=O)n4c(C)csc4n3)cc2)cc1 the activation was inactive: 3.91%.
In the case of CCCN(CCC)CCCNC(=O)Cn1ncc2c3ccccc3n(Cc3ccccc3)c2c1=O, the activation is reported as inactive: -5.69%.
For Cc1ccc(NC(=O)Cc2csc(C)n2)c(C)c1, the activation was inactive: -7.47%.
For COc1cc2c(cc1O)CC[C@@H]1[C@@H]2CC[C@]2(C)[C@@H](O)CC[C@@H]12, the activation was inactive: -25.2%.
With Cc1nc(-c2ccc(Cl)cc2)sc1CCNC(=O)c1cccs1 the activation was inactive: 36.6%.
With Cc1cccc(NC(=O)CSc2nncn2C)c1 the activation was inactive: -3.65%.
With CCCOc1ccc(-c2nc(SC)[nH]c(=O)c2C#N)cc1OC the activation was inactive: -0.127%.
For CCN(CC)CCN(C(=O)c1ccco1)c1nc2ccc(Br)cc2s1, the activation was inactive: 44.4%.
For CC(=O)Nc1nonc1-c1nnc(SCC(=O)Nc2cc(C)cc(C)c2)n1-c1ccccc1, the activation was inactive: -6.55%.
With Cc1ccc(S(=O)(=O)c2c(Nc3cc(F)ccc3F)sc(C(=O)c3ccc(F)cc3)c2N)cc1 the activation was inactive: -11.3%.
In the case of O=C(c1ccc2c(c1)N(Cc1ccccc1)C(=O)c1ccccc1S2(=O)=O)N1CCCCCC1, the activation is reported as inactive: -23.1%.
For Cc1ccccc1Cn1c2ccccc2c2cnn(CC(=O)NCCc3ccccc3)c(=O)c21, the activation was inactive: -6.59%.

— PubChem BioAssay AID1346428 (National Center for Advancing Translational Sciences (NCATS), 2018)
Further: 0% is about no effect.
